B1: 98608890_98609252_2255_CDS_ENSMUSG00000031310_ENSMUST00000121520|mouse|control|control (ssRNA)
RNA: GGGAGUUCUACAGUCCGACGAUCAUCCAGCUGCUCAGUGACACCACGCUGGCAGGUUUGGGAACAGUAAGUACAGGUGAUACAACAUAAGCCCAGCUUCUUAGUAAAAUCUUGCUUGUACAGCAGUACACAGCCUUCACUGCACAACAGAGGAUUGAGCAUCA
B2: chr4:13698614:13698615:+_ENSMUSG00000006586_ENSMUST00000098257|mus_mus|motif|central (ssRNA)
RNA: GGGAGUUCUACAGUCCGACGAUCACUCAGUGCUCUCCAAGUGUUUCUUUUGACAGAUAUCAUUCUCCAGCAAGCGCUGUGCGGAUCUCCUCUGCUGCUCGGACUGGGACCCAGAUAAGUUCACCAGCCCACAGAUCAAUCUUUCAACAGAGGAUUGAGCAUCA
B3: chr7:118218646:118218647:-_ENSMUSG00000005610_ENSMUST00000162415|mus_mus|motif|central (ssRNA)
RNA: GGGAGUUCUACAGUCCGACGAUCUUCCUGUUUGAGUAAACUGAUUAAAGAGCUUGCUUUUUCUUUAUCUUCAUCACUUCGGUCAAGUGACAGGAUGAUCACUUUGCUUAGCAUCUCAGGAAGAAAGUGUUUUGGAGCUCUCAUCAACAGAGGAUUGAGCAUCA
B4: chr13:50590013:50590014:+_ENSG00000204977_ENST00000378182|hu_mus|FALSE|FALSE (ssRNA)
RNA: GGGAGUUCUACAGUCCGACGAUCGGGUCGCUCUACAAACAUUGUAAUCCUCCCACUUAGCAUCUCGAUUGUUUUGCUGCAAGAGCCAAACACUCUGAAGAAGGCUUGAGUAUUUUGGUUUAGGAAAUGGACCUCCAUGACAGCCAACAGAGGAUUGAGCAUCA
B5: chr15:44267162:44267163:+_ENSMUSG00000022338_ENSMUST00000060652|mus_mus|FALSE|FALSE (ssRNA)
RNA: GGGAGUUCUACAGUCCGACGAUCCUGAGCAAGGAAUGUUCUUAUUCUCUGUAGGAGCUCCUUCUUUACACUGUCAGGUACCAGGGCUCUGCCUUUUGGAGUGAUUUCAGCCACCAAGUCAUCAACAGUAACGUGUUCUAGUCCCAACAGAGGAUUGAGCAUCA
B6: chr2:32086683:32086684:+_ENSMUSG00000039262_ENSMUST00000036691|mus_mus|motif|central (ssRNA)
RNA: GGGAGUUCUACAGUCCGACGAUCUGACCACUGGGGACAGCAGAGCAGAGAGAGGACAGCGAGGACCAUAUAAAAGUUCAGCGGUACAGAUGUAGCUAGCAUUUUGUUCUCAUUUCCCCUUUGUAAAAACCUUAGCUGCUUUUUCAACAGAGGAUUGAGCAUCA
B7: chr2:44428564:44428565:+_ENSG00000138032_ENST00000378551|hu_hu|FALSE|FALSE (ssRNA)
RNA: GGGAGUUCUACAGUCCGACGAUCAAGAGCAGAUCCUGAUUUUCCAGCUGCCCUAAAGUCUUCGUUAGUAGUGAUGUGUUCUAAUAAAUGUGUUGAGCAGUAAUUUGCCACUCGGGAUCCAGCAUGACCAUCAUAAACUGCAAACAACAGAGGAUUGAGCAUCA
B8: 66455519_66455728_6417_CDS_ENSG00000173898_ENST00000309996|human|control|control (ssRNA)
RNA: GGGAGUUCUACAGUCCGACGAUCUUGUGUGGAUGGUGGUGGCCGUGGCUGGGUUCCGUCCCAGGUGGUGUCAGAAGCUGUCUGGCCGCCCACCAGGUCCCCUGGAGGCACACUGGCUGUGGGUUCGGGAGCAGGCGGCUGUUUCAACAGAGGAUUGAGCAUCA
B9: chr22:42033747:42033748:+_ENSG00000196419_ENST00000405878|hu_hu|FALSE|FALSE (ssRNA)
RNA: GGGAGUUCUACAGUCCGACGAUCCAGGUCUUCUAGCUUGCUGGAUUCCUCAAAGUGAACCCUGAGGUCCUCAUCCUCUGCUAUGCUGAUGAUAUCUCUGUAGAACAAGGAUAUGUCAAAGCCCCCAGGUUUCUUCAGGUGCAUCAACAGAGGAUUGAGCAUCA
B10: chr14:15598107:15598108:+_ENSMUSG00000021733_ENSMUST00000057015|perfect_dup|motif|central (ssRNA)
RNA: GGGAGUUCUACAGUCCGACGAUCUUGCCCAGCAAACAAUGAAUAGGCAAUCCCAGUUAAUGAUGCUCCAAAAAGAGACUCGGUUGCACUUAUUCUGCCUUCUGUAGCUUCUCCAAGCAGCCCUCCAAAAGUGAUUACAGGAGACAACAGAGGAUUGAGCAUCA
B11: chr11:87793471:87793472:-_ENSMUSG00000020483_ENSMUST00000020775|mus_mus|mus_mus_mus_hu_False|58_68 (ssRNA)
RNA: GGGAGUUCUACAGUCCGACGAUCUGGACUUGAAAAUAAAAGAAUAAGCUGGAUCCCCCACCCCCCCACAGUGUCAACCCUAUGCGAGAGUUUUGAAGGCGACUCAUGAAAAUCAGCAGCUCAAACGGCAAUGACCACCCCACCCAACAGAGGAUUGAGCAUCA
B12: chr8:34730120:34730121:+_ENSMUSG00000009630_ENSMUST00000009774|mus_hu|FALSE|FALSE (ssRNA)
RNA: GGGAGUUCUACAGUCCGACGAUCUAAAACAGUAAUUUAGUUUAAAUGAAGGGAAAUCUCUUUAAAUGUUAUGACAACAUACUCCCAAGAAGAACCUUUUCUUCAGUUAAGUUAAUUAUACAUUUCAAUAAAAUAAAGGAUAAUCAACAGAGGAUUGAGCAUCA
B13: chr5:43295983:43295984:-_ENSG00000112972_ENST00000433297|hu_hu|motif|central (ssRNA)
RNA: GGGAGUUCUACAGUCCGACGAUCGAUACUAUUUUUAUCUCUAUUCUGGUCAUUAAGGAAGUCAUUCAGCAACAUCCGAGCGGGAGAUUUCUGAACCAGUUUACAAUAUGGUGAGUGAAAGAUCAUGAAGCCAAAAUCAUUCAACAACAGAGGAUUGAGCAUCA
B14: chr10:20037848:20037849:+_ENSMUSG00000037608_ENSMUST00000043881|mus_mus|motif|central (ssRNA)
RNA: GGGAGUUCUACAGUCCGACGAUCUCAGUGAUGUCUUUGAGACACUACCAAGAUUCUUCUUGUAGAAAAUGUUAUGGGAAACGGAACUCUAAAUUCAAAUACCUGACACGCCGAAGCACGAUGUGCGUGCAGGGUUUACCUCCGCAACAGAGGAUUGAGCAUCA
B15: chr14:76904430:76904431:+_ENSMUSG00000022010_ENSMUST00000022587|mus_mus|mus_mus_mus_hu_True|68_88 (ssRNA)
RNA: GGGAGUUCUACAGUCCGACGAUCUGCAGCCAAAAACACCCUCGUGGCGGGAGGGAGGGAACACCAGCAGCCUGGUUUAAGCUAGAUAAAAUCUUCUGGCUUUCCGCAGCCCAGGGAGAAACAGAAAACGGCAGCCCUAAUUUACAACAGAGGAUUGAGCAUCA
B16: chr17:72008250:72008251:+_ENSMUSG00000041057_ENSMUST00000047086|mus_hu|FALSE|FALSE (ssRNA)
RNA: GGGAGUUCUACAGUCCGACGAUCCAGCUCCAUUUAUAGACAAAUAUAACUGUACAUUACACCAGCAGCUGGUUCAAACUUGCUUUCCCAAGAUGCUUAUAUGGCUCUGGCUCUUAAGAUGAGCACACAAAUCUCUGUUCUGUCCAACAGAGGAUUGAGCAUCA
B17: 30389837_30391868_596_CDS_ENSMUSG00000029775_ENSMUST00000068259|mouse|control|control (ssRNA)
RNA: GGGAGUUCUACAGUCCGACGAUCCACAUUGCAGACAUGGACGUCAUUGCCGUUGCUCUCACCAAACGGGAUGCCUGUACCUCCGAACACUAACAGGUUGUUUCCAUGCAGCACAAGUGACAUUGAUGCCAAUUCCCGGGGCAUCAACAGAGGAUUGAGCAUCA
B18: chr2:179515052:179515053:+_ENSMUSG00000000305_ENSMUST00000000314|mus_hu|mus_mus_mus_hu_False|38_68 (ssRNA)
RNA: GGGAGUUCUACAGUCCGACGAUCGCUGUCCCAUGCAGUCACCGUGAACGCCACCUGCUCGGAGGGGAUCUUCAACUCCCGGGUGGCGAAGACUGUCCCAUCCGCCCCAACUUUGAAGUCCAUGCUGUUGGUCUCAUAUUGUGUCAACAGAGGAUUGAGCAUCA
B19: 74647320_74650340_1477_3pUTR_ENSG00000113161_ENST00000287936|human|control|control (ssRNA)
RNA: GGGAGUUCUACAGUCCGACGAUCAUUUUGCACCUUUCUCUGCAUUCCCAAGUAUCUGUAGACAUUCUUCAUUAGGCCGAGGUUCCCUGGGAAGUUCAAUUUCAGGUUCCUGUGUCACCAGUACUGAUGAAGUAUCGAGUAAGGCAACAGAGGAUUGAGCAUCA
B20: 31999977_32000268_785_CDS_ENSMUSG00000021910_ENSMUST00000168206|mouse|control|control (ssRNA)
RNA: GGGAGUUCUACAGUCCGACGAUCCUUGGUCCGGUAGUCAGGGAUGAUGCUCAAAGGGUUGUUCAGCAAGGUCAAACGCUCCAGACAUGGCAGGCUGCCAAUGCUCUUGACCUCAUCCAACUGCUCAAUCCGGUUGUCUCGUAGCAACAGAGGAUUGAGCAUCA
B21: chr16:17484321:17484322:+_ENSMUSG00000006134_ENSMUST00000006293|mus_mus|FALSE|FALSE (ssRNA)
RNA: GGGAGUUCUACAGUCCGACGAUCCAGACUUGAGGAGUUCGGGACAGAAUUGUCUGGAGUUUUACUUCCUCUGUCGUCCAAAGAAAACUGAGUUGGUGGCAAAACCACUGUUCUGUGGACCAGCAAAGCGAGACCUUGCCAAGCCAACAGAGGAUUGAGCAUCA
B22: 6701587_6701707_3041_CDS_ENSG00000111642_ENST00000544040|human|control|control (ssRNA)
RNA: GGGAGUUCUACAGUCCGACGAUCAAUUAGUUCUGUCUUGGAGGGCAUGUUCUUGAACACAUCGGCUUUGAGCCGCCGCAACAUGUGCGGCCCCAGCAUGUCAUGCAGUUUUUUUAUCUGGUCCUCCUUGGCAAUGUCAGCAAACAACAGAGGAUUGAGCAUCA

Some of the results follow.

This assay has as its target T1, UNK ZnF1-3 (human, UniProt Q9C0B0 31-174).
T1 sequence: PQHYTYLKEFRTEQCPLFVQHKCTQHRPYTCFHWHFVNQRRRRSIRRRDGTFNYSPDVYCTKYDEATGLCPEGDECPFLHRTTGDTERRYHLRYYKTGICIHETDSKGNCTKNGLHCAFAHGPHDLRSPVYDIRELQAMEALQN
The assay can be described thus: nsRBNS (natural sequence RNA bind-n-seq); RBNS binding buffer (assumed for nsRBNS): 25 mM Tris pH 7.5, 150 mM KCl, 3 mM MgCl2, 0.01% Triton X-100, 500 ug/ml BSA, 20 U/ml SUPERase-In, 4 C; UNK is unkempt and MSI1 is Musashi-1; names of the RNAs are library labels; protein concentration not given here; high values mean tight binding.
As for B1, the binding signal amounted to 1.16 enrichment R. Molecule B2 registered a binding signal of 0.751 enrichment R.

B3 came in with a binding signal of 0.668 enrichment R.

Turning to B4, the binding signal worked out at 0.888 enrichment R. B5 showed a binding signal of 1.16 enrichment R. Regarding B6, the binding signal came to 1.23 enrichment R. Molecule B7 returned a binding signal of 1.28 enrichment R.

In turn, B8 yielded a binding signal of 0.655 enrichment R. For B9, the binding signal was determined as 0.661 enrichment R. Under B10 stands 1.31 enrichment R; under B11, 2.02 enrichment R. Under B12 stands 0.849 enrichment R; under B13, 1.14 enrichment R. B14 had a binding signal of 0.616 enrichment R. Molecule B15 registered a binding signal of 2.06 enrichment R. As to B16, the binding signal amounted to 1.5 enrichment R.

Turning to B17, the binding signal was found to be 1.01 enrichment R. In turn, B18 yielded a binding signal of 0.738 enrichment R.

The molecule B19 came in with a binding signal of 0.692 enrichment R. With B20, the binding signal came to 1.16 enrichment R. B21: the binding signal is 1.11 enrichment R. On to B22, for which the binding signal was 0.469 enrichment R.
